The list shows a part of the results. Shown are side measurements of this screen, not its main read-out; they come without a call.
Experiments:
Assay in all cases: Primary Screen for Target Class Profiling of Small Molecule Inhibitors of Methyltransferases
[1] = molecular target: Glycine N-methyltransferase (Homo sapiens) (UniProt Q14749); conditions: purified enzyme, MTase-Glo SAH luminescence; measured here: GNMT inhibition; at 40 µM; stronger effect = lower value
Summary of the method: (§1)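 Each enzyme was assayed with SAM and its substrate. SAH formation detected by MTase-Glo luminescence; single-point 40 uM screen[…].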

[2] = molecular target: Guanidinoacetate N-methyltransferase (Homo sapiens) (UniProt Q14353); conditions: purified enzyme, MTase-Glo SAH luminescence; measured here: GAMT inhibition; at 40 µM; stronger effect = lower value
Summary of the method: as §1

[3] = molecular target: Histamine N-methyltransferase (Homo sapiens) (UniProt P50135); conditions: purified enzyme, MTase-Glo SAH luminescence; measured here: HNMT inhibition; at 40 µM; stronger effect = lower value
Summary of the method: as §1

[4] = molecular target: Nicotinamide N-methyltransferase (Homo sapiens) (UniProt P40261); conditions: purified enzyme, MTase-Glo SAH luminescence; measured here: NNMT inhibition; at 40 µM; stronger effect = lower value
Summary of the method: as §1

[5] = molecular target: Phenylethanolamine N-methyltransferase (Homo sapiens) (UniProt P11086); conditions: purified enzyme, MTase-Glo SAH luminescence; measured here: PNMT inhibition; at 40 µM; stronger effect = lower value
Summary of the method: as §1
% is scaled to controls: 0 for no effect and ±100 for the full control effect.

Row | SMILES | activity change, negative = inhibition [1] [%] | activity change, negative = inhibition [2] [%] | activity change, negative = inhibition [3] [%] | activity change, negative = inhibition [4] [%] | activity change, negative = inhibition [5] [%]
1 | COCC1(C(=O)N2C[C@@H](C(=O)O)[C@H](c3ccccc3OC)C2)CCC1 | -3.86 | -4.95 | -2.22 | -2.93 | -2.75
2 | CCCn1c(=O)c2ccccc2n2c(SCC(=O)Nc3ccc4c(c3)OCO4)nnc12 | -7.84 | 0 | 5.59 | -7.24 | 0.107
3 | CN1C(=O)c2cc(C(=O)NCCCN3CCCCC3)nn2CC1(C)C(=O)NC1CCCC1 (configuration not stated) | -3.52 | 0 | 1.75 | -5.04 | -5.49
4 | CC[C@@H](C)[C@H]1C(=O)O[C@H](C(C)C)C(=O)N(C)[C@@H](C(C)C)C(=O)O[C@H](C(C)C)C(=O)N(C)[C@@H](C(C)C)C(=O)O[C@H](CC(C)C)C(=O)N1C | 5.21 | 6.77 | 10.3 | -6.21 | -5.18
5 | COC(=O)c1cc2n(n1)CC(C)(C(=O)NC1CCC(C)CC1)N(Cc1ccccc1OC)C2=O (configuration not stated) | 3.01 | 4.81 | 2.39 | -1.42 | 1.74
6 | CCOC(=O)N1CCC(Oc2cnc3c(ccn3-c3cncnc3)c2)CC1 | -14.8 | -14.2 | -20.1 | -21.1 | -13.5
7 | CC(C)CCn1c(=O)c2ccc(C(=O)NC3CCCCC3)cc2n2c(=O)n(C)nc12 | 1.3 | 4.75 | 4.47 | 2.73 | 1.34
8 | CC(C)n1c(=O)c2ccc(C(=O)NC3CCCCC3)cc2n2c(=O)n(Cc3ccccc3F)nc12 | -1.68 | 2.85 | 3.6 | -2.36 | 0.424
9 | CC(C)NC(=O)CN1C(=O)NC(c2ccc(Cl)cc2)C2=C1COC2=O (configuration not stated) | -0.93 | 0.587 | 0.81 | 4.3 | 2.36
10 | O=C(O)CC1NCCNC1=O (configuration not stated) | -1.12 | -2.81 | 1.45 | -7.69 | -0.311
11 | COc1ccc(Cl)cc1NC(=O)N1CCn2cccc2C1Cc1ccccc1 (configuration not stated) | -5.87 | 0 | 2.16 | -4.92 | -3.29
12 | CNC(=O)c1ccc(NC(=O)c2nc(C(O)c3ccccc3F)oc2C)cc1 (configuration not stated) | -9.91 | -6.21 | -1.98 | -5.59 | -0.1
13 | CC(=O)Oc1cc(C(C)C)c(OCCN(C)C)cc1C | 4.87 | 12.6 | 8.51 | -0.987 | 9.22
14 | CN1[C@@H](CCC(=O)N2CCN(c3ccccn3)CC2)CNC(=O)[C@@H]2[C@H]1CCN2Cc1ncc[nH]1 | -1.63 | -0.883 | -1.8 | 1.34 | 1.81
15 | Cc1nc(CN2CCOc3cc([S+](=O)([O-])N(C)C)ccc3C2)cs1 | -1.68 | -3.93 | -2.54 | 0.753 | -3.57
16 | COc1ccc(-n2ccnc2-c2cc3n(n2)CCCNC3)c(OC)c1 | -2.07 | -2.73 | 0.445 | -7.16 | 8.58
17 | O=c1cc(-c2ccncc2)nc(-c2ccc(CN3CC[C@@H](O)C3)cc2)[nH]1 | -11.3 | -8.19 | -7.38 | -10.9 | -6.08
18 | O=C(COc1cc2oc(=O)cc(-c3ccccc3)c2cc1Cl)OCc1ccccc1 | -6.59 | 3.01 | -3.61 | -4.94 | -4.92
19 | CNC(=O)[C@@H]1CN(C(=O)c2cc3cc(OC)ccc3[nH]2)C[C@H]1COC | -2.96 | -4.27 | -1.18 | -11.2 | -19.8

Row | SMILES | activity change, negative = inhibition [1] [%] | activity change, negative = inhibition [2] [%] | activity change, negative = inhibition [3] [%] | activity change, negative = inhibition [4] [%] | activity change, negative = inhibition [5] [%]
20 | COc1ccc2c(c1)OC[C@]1(O)c3cc4c(cc3O[C@H]21)OCO4 | -4.24 | -2.43 | 7.34 | -20.9 | 1.64
21 | O=C(NC[C@H]1O[C@@H](CO)[C@@H](O)[C@H]1N1CCCC1)c1ccc(F)c(Cl)c1 | -1.83 | -0.845 | 0.635 | -7.11 | -3.67
22 | CCC(C)NC(=O)c1ccc2c(=O)n(CCC(C)C)c3nn(Cc4cccc(Cl)c4)c(=O)n3c2c1 (configuration not stated) | -1.49 | 1.19 | 2.2 | 2.14 | -2.89
23 | CC(C)CC1(C(=O)OCc2ccc(O[C@@H]3O[C@H](CO)[C@@H](O)[C@H](O)[C@H]3O)cc2)CC(=O)OC(C(=O)O)CC(=O)OCC2OC(O1)C(OC(=O)/C=C/c1ccc(O)cc1)C(O)C2O (some centres not stated) | -0.333 | 2.51 | 4.51 | -9.09 | 6.82
24 | C=C1CC[C@@H]2[C@@](C)(CO[C@@H]3O[C@H](CO)[C@@H](O)[C@H](O)[C@H]3O)[C@H](O)CC[C@@]2(C)[C@@H]1CC/C(C)=C/CO[C@@H]1O[C@H](CO)[C@@H](O)[C@H](O)[C@H]1O | -3.15 | -11.2 | 1.48 | -20 | -2.95
25 | Cc1ccc(F)cc1C(=O)Nc1ccc(C(=O)N2Cc3cccn3Cc3ccccc32)c(Cl)c1 | -7.19 | -17.9 | -4.03 | -39.6 | -12.7
26 | Cc1ccc(-c2nnn3c2nc(NC2CCCC2)c2ccccc23)cc1 | 0.836 | 0.132 | 4.52 | 5.15 | 0.363
27 | COc1ccccc1CN1CC(c2noc(CCC(=O)c3ccc(C)cc3)n2)CC1=O (configuration not stated) | -3.88 | 4.4 | 0.086 | -11.2 | -3.26
28 | CC(=O)N1CCn2c3c(c4cc(C)ccc42)CCCC31 (configuration not stated) | 2.29 | 1.73 | 0.879 | -2.63 | -0.354
29 | O=C(NCCCn1cccn1)c1ccccc1OC1CCN(Cc2ccccn2)CC1 | -0.364 | 0.766 | -0.775 | 4.95 | 6.6
30 | CN(C)C/C=C/C(=O)Nc1cc2c(Nc3ccc(F)c(Cl)c3)ncnc2cc1OC1CCOC1 (configuration not stated) | -68.7 | – | -69.3 | – | –
31 | O=c1c2ccccc2n2c(=O)n(Cc3c(F)cccc3Cl)nc2n1Cc1ccccc1 | 7.53 | 1.25 | 9.39 | 10.5 | 9.23
32 | Cc1ccc(Cn2c(=O)c3ccc(C(=O)NC4CCCCC4)cc3n3c(=O)[nH]nc23)cc1 | -2.95 | 1.17 | 3.76 | -3.68 | -5.86
33 | O=C(NCCc1ccccc1)c1ccc(CN2C(=O)CCn3nc(-c4ccccc4)cc32)cc1 | -5.26 | 2.89 | 2.03 | -31.3 | -0.191
34 | Cc1cccc(CNC(=O)C2(C)Cn3cnc(C(=O)N4CCOCC4)c3C(=O)N2C2CC2)c1 (configuration not stated) | 3.15 | 1.61 | 14.7 | 5.13 | 11.8
35 | NC(=O)Cn1ccn2nc3c(c2c1=O)CCCC3 | -2.66 | -2.4 | 0.071 | -0.914 | -3.28
36 | CN(Cc1ccccc1)Cc1cc(C[C@@H]2C[C@H](NC(=O)C3CCC3)C2(C)C)no1 | -2.94 | 4.45 | 0.346 | -4.54 | 13.7
37 | C/C=C(/C)C(=O)OC1C2OC2C2(CO2)C2C3OC(=O)C(C)C3CCC12C (configuration not stated) | 4.24 | 2.84 | 8.58 | -9.99 | 0.478
